Our source for the Potency values is PubChem BioAssay (NCATS).

The nature of assay [1]: P-glycoprotein substrates identified in KB-8-5-11 adenocarcinoma cell line, qHTS therapeutic library screen (AID 1346987). Further: nearly all actives have a fitted effect of over 65% in size. The following applies: KB-8-5-11 (P-gp overexpressing) viability, CellTiter-Glo, 72 h. In outline: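 Compounds are pinned in dose-response onto KB-8-5-11 cells (500 cells/well, colchicine-free medium) and left 72 h at 37 degree C. CellTiter-Glo luminescence then yields AC50 values.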

A short description of assay [2]: qHTS of pediatric cancer cell lines to identify multiple opportunities for drug repurposing: Primary screen for SJ-GBM2 cells (AID 1347091). As to conditions: SJ-GBM2 viability, CellTiter-Glo luminescence, 48 h; series mostly up to 46 µM. An excerpt: Drug repurposing or repositioning has been offered as a strategy for drug development in oncology programs. This approach has special potential for childhood cancers and other rare or orphan diseases, where the expected return on new drug development has been a disincentive to pharmaceuticals.
In this project we exploit the poly-pharmacology of drugs to discover new indications via phenotypic screening of a panel of 19 well-characterized cell lines derived from solid tumors seen in children and adolescents. The goal is to identify approved drugs with previously unrecognized anticancer properties that has the potential to reveal new mechanisms and biological processes involved in carcinogenesis or drug resistance. We employed a titration-based paradigm (quantitative high-throughput screening or qHTS), where all compounds were tested at multiple concentrations for their effect on cell viability. […] We screened the NIH Chemical Genomics Center (NCGC) Pharmaceutical Collection (NPC) and Mechanism Interrogation Plate (MIPE) small molecule collections of approved and investigational compounds against these cell lines; and measured metabolically active cells after 48 hours of compound treatment as a proxy for cell viability. […]
[1] Shen, M et al. Quantitative high-throughput phenotypic screening of pediatric cancer cell lines identifies multiple opportunities for drug repurposing. […]

Assay [3] in a line: qHTS of pediatric cancer cell lines to identify multiple opportunities for drug repurposing: Primary screen for BT-37 cells (AID 1347094). The following applies: BT-37 viability, CellTiter-Glo luminescence, 48 h; series mostly up to 57.3 µM. In short, it runs like this: (§1)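 Luminescence from CellTiter-Glo served as readout of metabolically active cells after 48 h compound exposure. Titrations: MIPE 11-point, from 0.78 nM; NPC 8-point, from 0.59 nM (final). Concentration-response curves came straight from the primary screen.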
Background: In qHTS, concentration-response curves come from the screen itself.

Assay [4] is described as follows: qHTS of pediatric cancer cell lines to identify multiple opportunities for drug repurposing: Primary screen for BT-12 cells (AID 1347101). Further: nearly all actives have a fitted effect of over 25% in size. As to conditions: BT-12 viability, CellTiter-Glo luminescence, 48 h; series mostly up to 57.3 µM. In outline:
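Cells (500-1,000/well) rested 5 h, then received compounds for 48 h; metabolically active cells were measured by CellTiter-Glo luminescence. Final concentrations spanned up to 46 µM (MIPE, 11-point) or 0.59 nM-46 µM (NPC, 8-point) in primary screens, 11-point in follow-ups.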

Assay [5] can be described thus: qHTS of pediatric cancer cell lines to identify multiple opportunities for drug repurposing: Primary screen for Rh18 cells (AID 1347102). Further: nearly all actives have a fitted effect of over 65% in size. As to conditions: Rh18 rhabdomyosarcoma viability, CellTiter-Glo luminescence, 48 h; series mostly up to 46 µM. In outline: (§2)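 Cells (500-1,000/well) in growth media were settled 5 h at 37 degrees C, then given compounds for 48 h. Viability was read as CellTiter-Glo luminescence. Primary runs used MIPE at 11 points (0.78 nM-46 µM) and NPC at 8 points (0.59 nM-46 µM); follow-ups used 11 points.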

The nature of assay [6]: qHTS of pediatric cancer cell lines to identify multiple opportunities for drug repurposing: Primary screen for Rh30 cells (AID 1347107). Further: nearly all actives have a fitted effect of over 75% in size. As to conditions: Rh30 rhabdomyosarcoma viability, CellTiter-Glo luminescence, 48 h; series mostly up to 46 µM. In outline: as §2
Assay [7] in a line: qHTS of pediatric cancer cell lines to identify multiple opportunities for drug repurposing: Primary screen for Rh41 cells (AID 1347108). Further: nearly all actives have a fitted effect of over 70% in size. As to conditions: Rh41 rhabdomyosarcoma viability, CellTiter-Glo luminescence, 48 h; series mostly up to 46 µM. In outline:
as §1

A short description of assay [8]: qHTS of pediatric cancer cell lines to identify multiple opportunities for drug repurposing: Confirmatory screen for Rh30 cells (AID 1347126). Further: nearly all actives have a fitted effect of over 55% in size. The following applies: Rh30 rhabdomyosarcoma cell viability; series mostly up to 45.9 µM. In short, it runs like this: as §2
Assay [9] can be described thus: qHTS of pediatric cancer cell lines to identify multiple opportunities for drug repurposing: Confirmatory screen for SK-N-SH cells (AID 1347129).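 Further: cells exposed to compound for 48 h before viability read; nearly all actives have a fitted effect of over 60% in size.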 As to conditions: SK-N-SH neuroblastoma cell viability; series mostly up to 46.1 µM. In outline:
as §2

A short description of assay [10]: Primary qHTS for inhibitors of nuclear receptor binding SET domain protein 2 (NSD2) in an RCH-ACV wild type WT cells (2C) (AID 1645877). Further: nearly all actives have a fitted effect of over 70% in size. As to conditions: RCH-ACV (leukaemia line) NSD2 WT (2C) viability, CellTiter-Glo, 72 h.

Inconclusive results are not listed. The call rests on the fitted dose curve; in most records, active means well fitted curve in the direction sought with a large enough effect; inconclusive means small, poorly fitted or top-dose-only effect, or another doubt; inactive means no such curve, though single readings can be large; an effect the other way counts as inactive or inconclusive. Some entries of the source have several records that differ or are many. Only these are listed. An entry can have further records. Results that share an entry repeat one measurement across runs, samples, wells, individuals or studies. Some compounds were tested as several samples or in several runs, with calls that do not always agree. A tag in brackets gives the origin of a value. Letters count within one entry.
Potency means the concentration at half of the fitted maximal effect.

As to `CC(C)C[C@H](NC(=O)[C@H](Cc1ccccc1)NC(=O)c1cnccn1)B(O)O`, the Potency result in assay [1] was “active: 820, 651, 118, 116 nM [separate samples]”.

Regarding `O=C(NCC1CCCCN1)c1cc(OCC(F)(F)F)ccc1OCC(F)(F)F` (stereo not drawn), the Potency entry was “active: 935 nM [sample A] and inactive [sample B]” in assay [2]; “active: 485 nM [sample A] and inactive [sample B]” in assay [3]; “active: 769 nM [sample A] and inactive [sample B]” in [4].

Take `CC(C)c1nc(CN(C)C(=O)N[C@H](C(=O)N[C@@H](Cc2ccccc2)C[C@H](O)[C@H](Cc2ccccc2)NC(=O)OCc2cncs2)C(C)C)cs1`: the Potency result in [2] is “inactive [sample A] and active: 18.8 µM [sample B]”; in assay [5], “active: 23.5 µM [sample A] and inactive [sample B]”; in assay [6], “active: 23.5 µM [sample A] and inactive [sample B]”; in assay [7], “active: 20.9 µM [sample A] and inactive [sample B]”.

Consider `Cc1ccc(C)c(OCCCC(C)(C)C(=O)O)c1`, for which the Potency result in assay [4] is “inactive [sample A] and active: 21.7 µM [sample B]”.

As for `Cc1cc2cc3c(C)cc(=O)oc3c(C)c2o1`, the Potency result in assay [7] was “inactive [sample A] and active: 18.7 µM [sample B]”.

For `CC[C@]1(O)C[C@H]2CN(CCc3c([nH]c4ccccc34)[C@@](C(=O)OC)(c3cc4c(cc3OC)N(C=O)[C@H]3[C@@](O)(C(=O)OC)[C@H](OC(C)=O)[C@]5(CC)C=CCN6CC[C@]43[C@@H]65)C2)C1`, the Potency result in assay [8] is “active: 2.33 µM [sample A] and inactive [sample B]”; in [9] it was “active: 16.6 nM [sample A] and inactive [sample B]”.

For the molecule `Cc1nc(Nc2ncc(C(=O)Nc3c(C)cccc3Cl)s2)cc(N2CCN(CCO)CC2)n1`, the Potency result in [10] was “active: 2.7, 18.3, 58, 33.2 nM [separate samples]”.
